# Reference: PubChem BioAssay AID2546 (National Center for Advancing Translational Sciences (NCATS), 2010)
# Screen size: about 310,000 compounds; about 11,000 (3.5%) were called active. This list was built around the results that the source calls inconclusive (neither active nor inactive); the mix of calls is not that of the screen. Calls follow the shape of the dose curve; as a rule, active = well fitted inhibition curve with a large enough effect; inconclusive = small, poorly fitted or top-dose-only effect, or effect the other way; inactive = flat fitted curve, though single readings scatter. Potencies of inconclusive entries are left out as doubtful fits.
# Test: VP16 counterscreen qHTS for inhibitors of ROR gamma transcriptional activity;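 also: Gal4-VP16 expression switched on by copper sulfate through the metallothionein promoter; nearly all actives have a fitted effect of over 50% in size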
# Conditions: Drosophila S2 Gal4-VP16 UAS-luciferase, luminescence, 20 h; activity, negative = inhibition: at 53.6 µM (top of the series)
# % is scaled to controls: 0 for no effect and ±100 for the full control effect; potency is read from the fitted curve at half-maximal effect; tags tell the direction and shape of the fitted curve.
Structure (SMILES),Potency,"activity, negative = inhibition"
CC(C)(C)c1nnc(NC(=O)c2ccc3c(c2)OCO3)s1,"inconclusive [activator, partial curve]",
CC(C)C[C@H](NC(=O)c1[nH]cnc1C(=O)Nc1ccc(CNC(=O)OC(C)(C)C)cc1)C(=O)OC(C)(C)C,active: 8.91 µM,
CC(C)C1Cc2c(sc(NC(=S)NC(=O)c3ccccc3)c2C#N)CO1 (configuration not stated),"inconclusive [inhibitor, partial curve]",
CCc1nc(Nc2ccc(OC)c(OC)c2)c2nnn(Cc3ccccc3Cl)c2n1,"inconclusive [inhibitor, single point]",
CCCC1=NN(C(=O)C(=O)Nc2ccc(Br)cc2)C(O)(C(F)(F)F)C1 (configuration not stated),active: 5.01 µM,
O=C(Nc1nc2cc3c(cc2s1)OCCO3)c1cccs1,"inconclusive [inhibitor, single point]",
Cc1nn(C)c(=O)n1-c1ccc(Oc2ccccc2)cc1,"inconclusive [inhibitor, partial curve]",
CCOC(=O)N1CC=C2C(C#N)=C(N)C(C#N)(C#N)[C@H](c3cccs3)C2C1 (some centres not stated),"inconclusive [inhibitor, single point]",
Cc1ccc(C2=NN(C(=O)CCl)C(c3cccs3)C2)o1 (configuration not stated),"inconclusive [inhibitor, single point]",
CC(C)N1C(=O)/C(=C/c2nc3ccccc3c(=O)n2-c2ccccc2)c2ccccc21,,inactive: 6.24% [at 0.365 µM]
CCCn1ncc2c(Nc3ccc(C)c(C)c3)ncnc21,"inconclusive [inhibitor, single point]",
COc1ccccc1CNC(=O)c1ccccc1C(=O)NC(CC(C)C)C(=O)NCc1ccccc1OC (configuration not stated),inactive,
c1cncc(-c2nc(N3CCCCCC3)c3ccccc3n2)c1,"inconclusive [inhibitor, single point]",
c1ccc2[nH]c(NN=C3CCCCCC3)nc2c1,"inconclusive [inhibitor, single point]",
COc1ccc(C(=O)NC(=S)Nc2ccc(N3CCOCC3)c(Cl)c2)cc1[N+](=O)[O-],"inconclusive [inhibitor, full curve, poor fit]",
O=C(N/N=C/c1ccc(-c2ccccc2Cl)o1)c1ccccc1,active: 7.94 µM,
CC(CC(=O)N(C)C1CCCCC1)S(=O)(=O)c1ccc2c(c1)NC(=O)CO2 (configuration not stated),inactive,
Cc1ccc(-c2c(C3C4C=CCCC4(C)C(=O)N3Cc3ccccc3)ccc3ccccc23)cc1 (configuration not stated),"inconclusive [inhibitor, single point]",
CCCc1cc(C(=O)NCC(C)C)no1,"inconclusive [inhibitor, single point]",
COc1ccc(/C=N/NC(=O)c2cc3c(OC)ccc(OC)c3[nH]2)cc1O,"inconclusive [inhibitor, single point]",
Cc1nc(NC(=S)NC(=O)COc2ccccc2Cl)ccc1Br,active: 7.08 µM,

Structure (SMILES),Potency,"activity, negative = inhibition"
CSc1ccc(C2C(C#N)=C(N)Oc3c2ccc(=O)c2c(C)oc(C)c32)cc1 (configuration not stated),"inconclusive [inhibitor, partial curve, poor fit]",
Cc1ccc(C(=O)N/N=C\c2cc(Br)c(Br)o2)cn1,"inconclusive [inhibitor, single point]",
S=c1[nH]c(-c2ccccc2)cn1/N=C/c1cccs1,"inconclusive [inhibitor, single point]",
CCOC(=O)N1CCN(Cc2nc(N)nc(Nc3ccc(Oc4ccccc4)cc3)n2)CC1,"inconclusive [inhibitor, single point]",
COc1ccc2nc(SCCOC(=O)Nc3ccc(Cl)cc3)nc(C)c2c1,"inconclusive [inhibitor, single point]",
Cc1ccc(-c2ccc(C(=O)NCc3ccc(Cl)cc3)o2)c2ccccc12,"inconclusive [inhibitor, single point]",
C=CCc1cc(C=O)cc(OCC)c1OCc1ccc(Cl)cc1,"inconclusive [inhibitor, single point]",
O=C(c1ccco1)N1CCC[C@@]2(CCN(C(c3ccccc3)c3ccccc3)C2)C1,"inconclusive [inhibitor, single point]",
C=CCO/N=C/C1C(=O)CC(C)(C)CC1=O,"inconclusive [inhibitor, partial curve, poor fit]",
CCc1nnc(NC(=O)CSc2nc3cc4c(cc3cc2CC)OCCO4)s1,"inconclusive [inhibitor, single point]",
Cc1ccc(NC(=S)Nc2ccc(Br)cc2)cc1,"inconclusive [inhibitor, single point]",
CCCCn1c(/N=C/c2cc(OC)ccc2O)nc2ccccc21,"inconclusive [inhibitor, single point]",
CCCC(C)C(=O)Nc1ncc(S(=O)(=O)c2ccc([N+](=O)[O-])cc2)s1 (configuration not stated),inactive,
COc1ccc(-c2sc3ccccc3c2C#CCO)cc1,inactive,
COC(=O)c1sccc1NC(=S)Nc1cc(C)ccc1OC,active: 15.8 µM,
CCNC(=S)Nc1ccc(OCC)cc1,"inconclusive [inhibitor, single point]",
O=C(NNc1c([N+](=O)[O-])cc(C(F)(F)F)cc1[N+](=O)[O-])c1ccco1,"inconclusive [inhibitor, single point]",
CCOC(=O)CCCC(=O)N1CCOCCOCCN(C(=O)CCCC(=O)OCC)CCOCCOCC1,"inconclusive [inhibitor, partial curve, poor fit]",
CNC(=S)N(CCc1c(C)[nH]c2ccccc12)Cc1cc(OC)c(OC)c(OC)c1,"inconclusive [inhibitor, single point]",
CN1CCN(Cc2nc3ccccc3c(=O)n2Cc2nc(-c3ccc4ccccc4c3)cs2)CC1,"inconclusive [inhibitor, single point]",
Cc1ccc2oc(C(Cl)(Cl)Cl)cc(=O)c2c1,"inconclusive [inhibitor, single point]",
